Consider 76 variants from a collection of fitness landscapes (doi:10.1016/j.celrep.2020.107928).

Whole data set: some 81,000 sequences, median “one-hybrid fitness for binding NBS DNA” near -0.1, cut for the highest 2% near 0.36. The list shows a part of the results.

B1: Caulobacter ParB omega fusion; a variant is named by its letters at X, in order, B8GW30 (parent)
chain: MESVVVGEPGMSEGRRGLGRGLSALLGEVDAAPAQAPGEQLGGSREAPIEILQRNPDQPRRTFREEDLEDLSNSIREKGVLQPILVRPSPDTAGEYQIVAGERAWRAAQRAGLKTVPIMVRELDDLAVLEIGIIENVQRADLNVLEEALSYKVLMEKFERTQENIAQTIGKSXSHVANXMRLLXLPDEVQSYLVSGELTAXHARAIAAAADPVALAKQIIEGGLSVRETEALARKAPNLSAGKSKGGRPPRVKDTDTQALESDLSSVLGLDVSIDHRGSTGTLTITYATLEQLDDLCNRLTRGI

In this assay the parent is B1. Put plainly: one-hybrid fitness for binding NBS DNA (the Noc-binding site; scaled: cognate 1, non-cognate 0); higher = stronger binding. The following applies: with NBS DNA site. An outline of the steps: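 The reporter was HIS3, with the binding site 19 bp from the promoter, in E. coli USO used for bacterial one-hybrid selection of Caulobacter ParB libraries with four specificity codons randomised. Growth was on M9 lacking histidine, with 0.1 mM IPTG and 5 mM 3-AT, for 48 hours at 37°C. Illumina sequencing covered plasmids before and after selection; three replicate libraries were pooled and variants with under 10 reads dropped. A fitness score is the log change in variant-to-wild-type read ratio, rescaled to the cognate and non-cognate references.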
As for LTMI, the “one-hybrid fitness for binding NBS DNA” value is not above 0.2.

For the variant QLLL, the “one-hybrid fitness for binding NBS DNA” value was not above 0.2.

Turning to MTLN, the “one-hybrid fitness for binding NBS DNA” value is not above 0.2.

For the variant PCAT, the “one-hybrid fitness for binding NBS DNA” value is not above 0.2.

For RPND, the “one-hybrid fitness for binding NBS DNA” value was not above 0.2.

AISY: the “one-hybrid fitness for binding NBS DNA” value is not above 0.2.

Regarding AWSN, the “one-hybrid fitness for binding NBS DNA” value is not above 0.2.

RLPI: the “one-hybrid fitness for binding NBS DNA” value is not above 0.2.

Take CQTC: the “one-hybrid fitness for binding NBS DNA” value was not above 0.2.

For GTPG, the “one-hybrid fitness for binding NBS DNA” value is not above 0.2.

Consider YGYI, for which the “one-hybrid fitness for binding NBS DNA” value is not above 0.2.

Turning to LQYS, the “one-hybrid fitness for binding NBS DNA” value was not above 0.2.

On to YPKY, for which the “one-hybrid fitness for binding NBS DNA” value is not above 0.2.

Turning to DTTE, the “one-hybrid fitness for binding NBS DNA” value is not above 0.2.

Consider PQIW, for which the “one-hybrid fitness for binding NBS DNA” value is not above 0.2.

Consider WTNR, for which the “one-hybrid fitness for binding NBS DNA” value is not above 0.2.

EEYG: the “one-hybrid fitness for binding NBS DNA” value was not above 0.2.

On to ESKN, for which the “one-hybrid fitness for binding NBS DNA” value is not above 0.2.

As for AVHT, the “one-hybrid fitness for binding NBS DNA” value was not above 0.2.

In the case of KGDK, the “one-hybrid fitness for binding NBS DNA” value is not above 0.2.

Regarding MSWT, the “one-hybrid fitness for binding NBS DNA” value is not above 0.2.

With VTRN, the “one-hybrid fitness for binding NBS DNA” value was not above 0.2.

RGEI: the “one-hybrid fitness for binding NBS DNA” value was not above 0.2.

On to CPQL, for which the “one-hybrid fitness for binding NBS DNA” value was not above 0.2.

QLSQ: the “one-hybrid fitness for binding NBS DNA” value was not above 0.2.

Regarding CSNF, the “one-hybrid fitness for binding NBS DNA” value was not above 0.2.

With TDVL, the “one-hybrid fitness for binding NBS DNA” value is not above 0.2.

For the variant PTSC, the “one-hybrid fitness for binding NBS DNA” value is not above 0.2.

Take QTAE: the “one-hybrid fitness for binding NBS DNA” value was not above 0.2.

On to RNVF, for which the “one-hybrid fitness for binding NBS DNA” value is not above 0.2.

For ERIG, the “one-hybrid fitness for binding NBS DNA” value was not above 0.2.

Consider NAVY, for which the “one-hybrid fitness for binding NBS DNA” value is not above 0.2.

Take RYRP: the “one-hybrid fitness for binding NBS DNA” value was not above 0.2.

Consider RPML, for which the “one-hybrid fitness for binding NBS DNA” value is not above 0.2.

With IAMS, the “one-hybrid fitness for binding NBS DNA” value is not above 0.2.

In the case of TTPC, the “one-hybrid fitness for binding NBS DNA” value was not above 0.2.

With KEST, the “one-hybrid fitness for binding NBS DNA” value is not above 0.2.

Regarding CVLR, the “one-hybrid fitness for binding NBS DNA” value is not above 0.2.

As for KRWQ, the “one-hybrid fitness for binding NBS DNA” value was not above 0.2.

Turning to HPGF, the “one-hybrid fitness for binding NBS DNA” value is not above 0.2.

Take NNRT: the “one-hybrid fitness for binding NBS DNA” value is not above 0.2.

Turning to HKDQ, the “one-hybrid fitness for binding NBS DNA” value is not above 0.2.

Regarding HLCS, the “one-hybrid fitness for binding NBS DNA” value was not above 0.2.

For the variant KKKC, the “one-hybrid fitness for binding NBS DNA” value was not above 0.2.

Turning to RIIT, the “one-hybrid fitness for binding NBS DNA” value was not above 0.2.

As for QWVL, the “one-hybrid fitness for binding NBS DNA” value is not above 0.2.

With KPYS, the “one-hybrid fitness for binding NBS DNA” value is not above 0.2.

RRCQ: the “one-hybrid fitness for binding NBS DNA” value was 0.258.

RQCH: the “one-hybrid fitness for binding NBS DNA” value was not above 0.2.

On to KTLE, for which the “one-hybrid fitness for binding NBS DNA” value was not above 0.2.

In the case of GTLR, the “one-hybrid fitness for binding NBS DNA” value is not above 0.2.

LHNL: the “one-hybrid fitness for binding NBS DNA” value was not above 0.2.

IDRY: the “one-hybrid fitness for binding NBS DNA” value was not above 0.2.

For the variant RHPE, the “one-hybrid fitness for binding NBS DNA” value was not above 0.2.

GSTE: the “one-hybrid fitness for binding NBS DNA” value was not above 0.2.

On to REQM, for which the “one-hybrid fitness for binding NBS DNA” value was not above 0.2.

For the variant SHFG, the “one-hybrid fitness for binding NBS DNA” value was not above 0.2.

Take KSKN: the “one-hybrid fitness for binding NBS DNA” value is not above 0.2.

Regarding VADN, the “one-hybrid fitness for binding NBS DNA” value is not above 0.2.

Regarding LPVV, the “one-hybrid fitness for binding NBS DNA” value was not above 0.2.

For the variant RCWR, the “one-hybrid fitness for binding NBS DNA” value is 0.405.

On to HAFG, for which the “one-hybrid fitness for binding NBS DNA” value was not above 0.2.

Regarding LGPE, the “one-hybrid fitness for binding NBS DNA” value was not above 0.2.

TWRI: the “one-hybrid fitness for binding NBS DNA” value is not above 0.2.

Regarding RCCR, the “one-hybrid fitness for binding NBS DNA” value was 0.45.

On to ESYL, for which the “one-hybrid fitness for binding NBS DNA” value was not above 0.2.

As for PNSM, the “one-hybrid fitness for binding NBS DNA” value was not above 0.2.

As for VVWR, the “one-hybrid fitness for binding NBS DNA” value was not above 0.2.

Regarding SYSA, the “one-hybrid fitness for binding NBS DNA” value was not above 0.2.

Turning to HYAG, the “one-hybrid fitness for binding NBS DNA” value was not above 0.2.

For the variant EYYS, the “one-hybrid fitness for binding NBS DNA” value is not above 0.2.

With FAQC, the “one-hybrid fitness for binding NBS DNA” value was not above 0.2.

With TQEA, the “one-hybrid fitness for binding NBS DNA” value is not above 0.2.

As for AMVA, the “one-hybrid fitness for binding NBS DNA” value was not above 0.2.

For RAWL, the “one-hybrid fitness for binding NBS DNA” value is not above 0.2.

Take RWPQ: the “one-hybrid fitness for binding NBS DNA” value is not above 0.2.
